# In PubChem BioAssay AID488969 (Vanderbilt High Throughput Screening Facility, 2010):
# The full ranking holds about 110,000 compounds; the median of “z-score” is about -0.1, and the highest 2% start at about 2. Some of the results follow. Active and inactive are the calls of the source.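 How the source made its calls: active means z-score in the third read window above 3 or below -3; inactive means the rest.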
# Target: Metabotropic glutamate receptor 8 (Rattus norvegicus) (UniProt P70579)
# Test: mGluR8 Gi/Go-coupled signaling modulation – cell-based, rat, thallium flux, HTS, primary screen (AID 488969)
# Conditions: HEK293 rat mGluR8, GIRK (G protein-gated inwardly rectifying potassium channel) thallium flux, FluoZin2; at 10 µM; stronger effect = higher value; submaximal glutamate (EC20) added with thallium
# Chain of UniProt P70579 (P70579 whole entry, looked up): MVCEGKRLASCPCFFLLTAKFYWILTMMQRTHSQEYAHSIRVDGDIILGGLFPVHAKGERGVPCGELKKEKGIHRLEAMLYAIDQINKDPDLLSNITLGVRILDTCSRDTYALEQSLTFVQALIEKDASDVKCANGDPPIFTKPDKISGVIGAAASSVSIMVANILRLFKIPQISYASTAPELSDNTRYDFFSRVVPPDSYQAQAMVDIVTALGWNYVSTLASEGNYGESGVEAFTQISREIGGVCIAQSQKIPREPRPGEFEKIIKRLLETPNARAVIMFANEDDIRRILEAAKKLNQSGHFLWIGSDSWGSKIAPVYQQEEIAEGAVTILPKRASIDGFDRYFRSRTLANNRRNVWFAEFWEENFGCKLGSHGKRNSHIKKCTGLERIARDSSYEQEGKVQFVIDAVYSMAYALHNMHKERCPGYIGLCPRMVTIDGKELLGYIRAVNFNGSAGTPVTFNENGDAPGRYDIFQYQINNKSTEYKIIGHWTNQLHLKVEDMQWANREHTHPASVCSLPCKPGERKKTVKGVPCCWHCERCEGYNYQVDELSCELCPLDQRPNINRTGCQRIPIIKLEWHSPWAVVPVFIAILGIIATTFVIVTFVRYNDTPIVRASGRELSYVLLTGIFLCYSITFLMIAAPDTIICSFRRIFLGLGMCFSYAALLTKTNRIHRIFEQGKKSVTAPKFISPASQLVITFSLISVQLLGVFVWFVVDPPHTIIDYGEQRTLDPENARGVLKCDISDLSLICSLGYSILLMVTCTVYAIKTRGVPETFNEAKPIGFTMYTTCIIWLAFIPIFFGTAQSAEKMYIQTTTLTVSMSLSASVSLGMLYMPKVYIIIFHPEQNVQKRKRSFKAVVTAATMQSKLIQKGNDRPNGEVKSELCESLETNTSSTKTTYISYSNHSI
row,SMILES,z-score
1,Cc1ccc(C2=CC(c3cccs3)n3nnnc3N2)cc1 (stereo not given),0.0575
2,Cc1ccc2c(c1)c(=O)c1c3n2CCN(C(=O)CCl)C3CC1 (stereo not given),-0.296
3,O=C(NCCCN=C1NS(=O)(=O)c2ccccc21)c1ccc(S(=O)(=O)N2CCCCC2)cc1,0.0192
4,Cc1ccc(C)c(NC(=O)CSc2nnc(CCNC(=O)OC(C)(C)C)o2)c1,0.761
5,CC(C)C(=O)N1CCC(CN=Cc2c(O)n(C3CCCCC3)c(=O)n(C3CCCCC3)c2=O)CC1,-0.818
6,OC(c1ccc(Cl)cc1)c1nnc(-c2ccccc2)o1 (stereo not given),0.955
7,O=C(OCCN1C(=O)c2ccccc2C1=O)c1cc2ccccc2o1,-0.735
8,COc1cc(C(=O)NCCOc2cc(C)cc(C)c2)c(Br)c(OC)c1OC,-0.0364
9,COc1ccc(NC(=O)CSc2nnc(Cn3cnc4ccccc43)n2C)cc1,0.66
10,Cc1ccc(-c2nnc(-c3ccc(NC(=O)Cc4cccs4)cc3)o2)cc1,-0.144
11,O=C(Nc1nc(-c2cccs2)cs1)c1ccc(Cl)cc1,-0.276
12,COc1ccc(N2C(=O)CN=C2Nc2nc(C)cc(C)n2)cc1OC,-0.0876
13,COC(=O)c1sc(S(=O)(=O)N2CCCCC2)c(C(=O)OC)c1C,-0.182
14,O=C(CCn1cnc2ccccc2c1=O)Nc1nc(-c2ccc(Br)cc2)cs1,-0.0773
15,Cc1nn2c3ccccc3n(C)c2nc1=O,-0.18
16,N#C/C(=C\c1cc2ccccc2nc1N1CCCCC1)C(N)=O,-0.818
17,O=C(NCc1ccc(F)cc1)C(c1ccncc1)N(C(=O)c1csnn1)C1CC1 (stereo not given),0.0871
18,CCn1c(SCC(=O)Nc2ccc(N3CCOCC3)c(Cl)c2)nnc1-c1ccc(N)cc1,2.78
19,Brc1ccc(Sc2cnc3ccccc3n2)cc1,0.523
20,CNS(=O)(=O)c1cc(NC(C)=O)c(C)cc1C,1.36
21,Cc1ccc(C(=O)NCCCCNC(=O)c2ccc(C)o2)o1,0.0778
22,COc1ccc(NC(=O)c2ccccn2)cc1OC,-0.0195

row,SMILES,z-score
1,Cc1cc(C(C)(C)C)ccc1OCCN(C)C,1.12
2,CCOC(=O)C1CCCN(C(=O)c2cncc(Br)c2)C1 (stereo not given),0.163
3,CCC(C)(C(=O)NC1CCCCC1)N(C(=O)C1CCC(=O)N1)c1ccccc1 (stereo not given),0.963
4,COc1ccc(N2C(=O)CC(N(Cc3ccc(S(N)(=O)=O)cc3)C(C)=O)C2=O)cc1 (stereo not given),-0.0773
5,O=C(Nc1ccncc1)Nc1ccccn1,-0.133
6,CC1(C)OC(=O)C(=CNc2cccc(C(=O)O)c2)C(=O)O1,0.00198
7,CCCc1nc(SC2CCCC2)c2c(=O)n(C)c(=O)n(C)c2n1,0.0535
8,COc1ccc(OC2C(=O)N(Cc3ccc4c(c3)OCO4)C2c2sccc2C)cc1 (stereo not given),-0.396
9,CCCCc1nn(-c2cc(Cl)ccc2OC)c2c1C(=O)CC(C)(C)C2,-1.66
10,COc1ccc(-c2cnn3c4c(c(C)nc23)CCN4C(C)C)cc1OC,-0.646
11,CCOC(=O)N1CCN(C(=O)c2cc3c(-c4ccc(Cl)cc4)nn(C)c3s2)CC1,-0.669
12,Fc1ccc(-n2c(Cc3ccccc3)nnc2SCc2nc(-c3ccc(Cl)cc3)no2)cc1,0.224
13,Fc1cnc(N2CCOCC2)nc1N1CCc2ccccc21,-0.743
14,COc1ccc(CCNC(=O)c2ccc3c(=O)n(Cc4ccco4)c(=S)[nH]c3c2)cc1OC,-0.965
15,CCCCCc1c(O)c2ccccc2[nH]c1=O,-0.405
16,CC(OC(=O)c1c2c(nc3ccccc13)/C(=C\c1ccc3c(c1)OCO3)CCC2)C(=O)Nc1ccc(S(N)(=O)=O)cc1 (stereo not given),-0.411
17,COCCNC(=O)CN(c1cc(C(F)(F)F)ccc1Cl)S(C)(=O)=O,1.88
18,O=[N+]([O-])c1ccccc1/C=N/n1c(-c2cccnc2)n[nH]c1=S,0.416
19,CCN(CC)c1nc(C(N)=O)cc(-c2ccccc2)n1,-0.396
20,COc1cc(Cl)c(C)cc1NC(=O)[C@@H]1CCCN1C(=O)c1cccs1,-0.141
21,COc1ccccc1N1CCN(C(=O)c2ccc(C(C)(C)C)cc2)CC1,-0.869
22,Clc1ccc(CN2CCCCCCC2)cc1Cl,-0.202

row,SMILES,z-score
1,CCn1c(SC/C=C/c2ccccc2)nnc1-c1cccs1,-1.61
2,Cc1ccc(S(=O)(=O)/C=C/c2ccccc2)cc1,-0.478
3,Cc1ccc(C(=O)N/C(=C/c2ccc(F)cc2)C(=O)NCc2ccncc2)cc1,0.0237
4,Cc1ccc(/C=N\NC(=O)c2cc(OCC(F)(F)F)ccc2OCC(F)(F)F)cc1,0.196
5,Cc1ccc(SCCNC(=O)/C=C/c2ccc([N+](=O)[O-])cc2)cc1,0.657
6,O=C1CC(c2cc3c(cc2Br)OCO3)C2=C(CCCC2=O)N1 (stereo not given),0.316
7,O=C(CN1C(=O)c2cccc3cccc1c23)N1CCc2ccccc2C1,-0.142
8,COC(=O)c1c(NC(=O)CN(c2ccccc2)S(C)(=O)=O)sc2c1CCCC2,0.77
9,COC(=O)CN1C(=S)N(Cc2ccccc2)C(=O)C1CC(=O)Nc1ccc(Br)cc1 (stereo not given),-0.0486
10,O=c1c2ccccc2nc2n1C(CSc1ccc(Br)cc1)CN2 (stereo not given),-0.025
11,CCCCn1c(=O)n(C)c(=O)c2c(C(F)(F)F)cc(-c3ccncc3)nc21,0.277
12,COc1cc(/C(C)=N/Nc2ccc(C(=O)O)cc2)cc(OC)c1OC,-0.226
13,CCc1cc2c(=O)c(-c3ccc4c(c3)OCCO4)coc2cc1OC(=O)c1ccco1,-0.00568
14,CCOc1ccccc1-n1c(SCC(N)=O)nnc1-c1ccco1,-0.718
15,O=C1OCCC1Sc1nnc(-c2ccc(Cl)cc2)n1Cc1ccccc1 (stereo not given),-0.478
16,O=C(c1cc(N2C(=O)C3C4CCC(C4)C3C2=O)ccc1Cl)N1CCN(c2ccccc2F)CC1 (stereo not given),-0.388
17,Cc1ccccc1NC(=O)c1cc(S(=O)(=O)N2CCCCC2)cs1,-0.216
18,CC(=O)c1cccc(NS(=O)(=O)N2CCCCC2)c1,0.0646
19,Nc1c(C(=O)OCC2CCCO2)c2nc3ccccc3nc2n1C1CCCCC1 (stereo not given),-0.431
20,COc1ccc(-c2nc(C#N)c(NC(C)C)o2)cc1,-0.503
21,S=C(Nc1ccc(Oc2ccccc2)cc1)NC1CCCC1,active: 7.92
22,O=C(O)c1ccc(S(=O)(=O)Cc2ccccc2)cc1,0.038

row,SMILES,z-score
1,Cc1ccc(C)c(-n2c(C)cc(/C=N/NC(=O)c3c(C)nc4cc(C)ccn34)c2C)c1,-0.281
2,Nc1nc2ccccc2n1C(=O)c1ccco1,0.192
3,N#Cc1nc(-c2ccc(Cl)cc2)oc1NCc1ccco1,-0.125
4,COc1ccc(C(=O)COC(=O)CNC(=O)c2cc(OC)cc(OC)c2)cc1,-0.208
5,COc1ccc(NC(=O)/C(=C\c2ccc(OS(=O)(=O)c3ccc(C)cc3)cc2)NC(=O)c2ccccc2)cc1,-0.0466
6,COc1ccc(C(=O)NC(C)c2nnc(SCc3ccc(Cl)c(Cl)c3)n2C)cc1 (stereo not given),-0.0457
7,CC(OC(=O)CCc1nc2ccccc2c(=O)[nH]1)C(=O)NC1CCCC1 (stereo not given),-0.356
8,O=C(NNC(=O)c1sccc1-n1cccc1)c1cccc(Cl)c1,active: 4.1
9,CCCCS(=O)(=O)Nc1ccc2ncn(C)c(=O)c2c1,0.477
10,NC(=O)c1c(NC(=O)c2ccco2)sc2c1CCC2,1.41
11,S=c1[nH]nc(-c2ccc(Cl)cc2)n1-c1ccc2c(c1)OCCO2,-0.419
12,CN(C)CC(O)COc1ccc(C(C)(C)c2ccc(OCC(O)CN(C)C)cc2)cc1 (stereo not given),0.615
13,Cc1ccc(C(=O)NN2C(=O)CSC2=S)cc1,-0.108
14,CN(C)c1ccc(C2OC(=O)C(C)(C)C(=O)C2(C)C)cc1 (stereo not given),0.264
15,Cc1cccnc1NC(=O)c1c(O)c2ccccc2n(C)c1=O,0.0459
16,Cc1nn2c(nc(N3CCCCC3)c3ccccc32)c1C=O,-0.324
17,Cc1cccc(NC(=S)Nc2ccccn2)c1C,0.00896
18,COc1ccc(Cl)cc1N1CC(c2nc3ccccc3[nH]2)CC1=O (stereo not given),-0.34
19,O=C1C2CCCN2C(c2ccc(F)cc2)N1c1ccc(Cl)cc1 (stereo not given),-0.573
20,Fc1ccc(Cn2nnnc2CN2CCN(C3CCCC3)CC2)cc1,0.209
21,CC1CN(c2ccccc2)C(=O)CS1 (stereo not given),0.219
22,COc1cc(/C=C2/SC(=S)N(CC(=O)Nc3nc4ccccc4s3)C2=O)cc(OC)c1OC,-0.195

row,SMILES,z-score
1,O/N=C1\CCc2cc(Cl)ccc21,0.365
2,O=C(Nc1nc2ccc3ccccc3c2s1)c1ccc(N2CCCCC2)c([N+](=O)[O-])c1,-0.197
3,Cc1cc(NC(=O)C2CC(c3ccc(F)cc3)=NO2)no1 (stereo not given),0.0549
4,CCc1nc2sc3ccccc3c(=O)c2c(=O)n1CCOC,0.000298
5,CSc1nnc(-c2nnc(SC)n2-c2ccccc2)n1-c1ccccc1,-0.386
6,CCc1c(C(=O)Nc2ccccc2)c(C)[nH]c(=S)c1C#N,0.498
7,CCCC(=O)C1=C(c2ccccc2)C(C#N)(C#N)C(C#N)=C1N,-0.464
8,Cn1cccc1-c1nc2ccc(NC(=O)c3cccs3)cc2[nH]1,active: -3.62
9,Cc1ccccc1OC(=O)CCC(=O)OCCCC(F)(F)C(F)(F)F,-0.253
10,COc1cc2c(cc1NC(=O)CN(C)Cc1ccc(OC)c(OC)c1)oc1ccccc12,-0.329
11,O=C(COc1ccccc1-c1ccccc1)NCCN1C(=O)S/C(=C\c2cccnc2)C1=O,-0.227
12,Cc1cc(NS(=O)(=O)c2ccc(NC(=O)Nc3cccc(Cl)c3)cc2)no1,-0.923
13,C=COCCn1c(=N)n(CCC)c2ccccc21,0.749
14,COc1ccc2c(c1)CCc1c(C(=O)Nc3c(C)n(C)n(-c4ccccc4)c3=O)noc1-2,-0.0467
15,FC(F)(F)c1ccccc1CN1CCN(C2CCCCCC2)CC1,-0.759
16,Cn1c(=O)n(CC(N)=O)c2ccccc21,0.941
17,Cc1ccc(N2C(=O)/C(=C\c3ccc(C(C)C)cc3)N=C2SC2CCOC2=O)cc1 (stereo not given),1.42
18,CCC1CCCCN1C(=O)CSc1nc2c([nH]c3ccccc32)c(=O)n1C (stereo not given),0.357
19,CCN(CC)CCn1c(NC(=O)c2ccc(Cl)cc2)nc2ccccc21,active: 4.18
20,Cc1ccc(CSCCNC(=O)/C=C/c2ccccc2Cl)cc1,-0.313
21,CC1(C)CC(=O)C2=C(C1)OC(N)=C(C#N)C21CCN(C(=O)OCc2ccccc2)CC1,0.19
22,Cc1ccc(-c2csc(C3C(N)=NC(S)=C(C#N)C34CCCCC4)n2)cc1 (stereo not given),0.125
